Measurements as given in PubChem BioAssay AID1346428 (National Center for Advancing Translational Sciences (NCATS), 2018).
Where “and” joins values, the source holds several entries; their conditions need not be identical. Identical values can stand only once. The whole screen tested about 48,000 compounds, of which about 1,200 (2.5%) were called active. About 2% were inconclusive and are not listed.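 How the source made its calls: active means activation of at least 60% and not above a set upper limit (about 1 call in 100 departs from these limits); inconclusive means activation of 40% to 60%, or above that upper limit; inactive means activation under 40%.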 This is one part of the list.

These molecules were tested against Probable G-protein coupled receptor 32 (Homo sapiens) (UniProt O75388) (assay: qHTS for Agonists of Human Resolvin D1 Receptor DRV1). Conditions: CHO-K1 GPR32 beta-arrestin PathHunter luminescence, 90 min; at 76.9 µM; hits give high values; zero percent set by DMSO-only wells.
In short: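 Agonism was scored by beta-Gal fragment complementation (chemiluminescent read, 1 h detection at ambient temperature) reporting beta-arrestin binding to GPR32 in engineered CHO-K1 cells. Compound treatment lasted 90 min at 37 C, normalized to a DMSO basal control.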
Further: 0% is about no effect.

Sequence of UniProt O75388 (O75388 whole entry, looked up, the tested form may be a part): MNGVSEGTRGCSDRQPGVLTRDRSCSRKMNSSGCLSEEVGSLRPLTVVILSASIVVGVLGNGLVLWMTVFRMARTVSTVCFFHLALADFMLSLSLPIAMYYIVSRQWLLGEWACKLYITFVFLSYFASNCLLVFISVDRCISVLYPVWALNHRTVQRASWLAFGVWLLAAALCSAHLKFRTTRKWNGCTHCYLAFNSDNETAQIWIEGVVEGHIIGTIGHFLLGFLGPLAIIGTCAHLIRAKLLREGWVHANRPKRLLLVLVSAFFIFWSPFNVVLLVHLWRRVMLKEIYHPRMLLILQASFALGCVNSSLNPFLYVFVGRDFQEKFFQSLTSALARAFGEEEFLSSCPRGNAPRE

activation, inactive:
CC1=C(C(=O)Nc2cccnc2)C(c2ccc(F)cc2)n2nc(SCc3ccccc3)nc2N1 (stereo not given) -20.5%, CCCNC(=O)Cn1nc(C)c2c(C)n(-c3ccccc3)nc2c1=O -3.06%, Cc1cccc(NC(=O)CCS(=O)(=O)c2cc(Br)cc3c2N(C(=O)C2CC2)CC3)c1C 3.81%, CC(NC(=O)C1CCN(C(=O)N2CCOc3ccccc32)CC1)c1ccccc1 (stereo not given) -10.8%, COc1cc(OC)c(NC(=O)CSc2nc3ccncc3[nH]2)cc1Cl 1.73%, CCCCOC(=O)CCCCCCCCC(=O)OCCCC -11.4%, CCCCNC(=O)CSc1nc2ccccc2nc1Cc1ccccc1 18.3%, CC(C)CCNC(=O)c1ccc(NC(=O)N2CCCCc3ccccc32)cc1 3.76%, Cc1ccc(N2CC(NC(=O)C3CCCC3)CC2=O)cc1 (stereo not given) -5.27%, CCOc1ccc(Nc2c(S(=O)(=O)c3ccccc3)cnc3ccc(CC)cc23)cc1 -45.5%, Cc1ccc(C(=O)c2cn(CC(=O)Nc3ccc4c(c3)OCCO4)c3nc(C)ccc3c2=O)cc1 19.7%, COc1cccc(N2CCN(C(=O)Cn3ncc4c3-c3ccccc3OC4)CC2)c1 39%, CSc1oc(-c2ccc(F)cc2)nc1S(=O)(=O)c1ccc(Br)cc1 -7.03%, CC(C)CC(NC(=O)C1CCC(C)CC1)C(=O)OCC(=O)c1ccc(Cl)cc1 (stereo not given) 5.4%, O=C(CSc1nc2ccccc2n1Cc1ccccc1)NCc1ccccc1 -40.6%, CN1Cc2cc(C(=O)N3CCC(C4CCNCC4)CC3)ccc2N[C@@H](CC(=O)O)C1=O 9.62%, Cc1ccc(CNC(=O)CN2C(=O)COc3ccc(S(=O)(=O)N4CCC(C)CC4)cc32)cc1 -22.3%, CCN1C(=O)c2ccccc2S(=O)(=O)c2ccc(C(=O)NCc3ccc(F)cc3)cc21 -36.6%, Nc1c(NC/C=C\COc2cc(CN3CCCCC3)ccn2)c(=O)c1=O -13.5%, CC(=O)N[C@@H](CS)C(=O)O 5.84% and -3%, CSc1cccc(NC(=O)c2ccc3c(c2)CCCN3S(C)(=O)=O)c1 10.3%, Cc1ccc(-n2cc(C(=O)OCc3ccc(Cl)cc3)c3ccccc3c2=O)cc1 -9.14%, Cc1ccc(NC(=O)Cc2coc3c(C)c(C)ccc23)c(C)c1 -4.42%, Cc1ccc(/C=C/C(=O)Nc2ccc(Cl)cc2Cl)cc1 12.1%, COc1ccc(NC(=O)c2ccc3[nH]c(C)cc(=O)c3c2)cc1 0.626%, NCc1ccccc1Sc1ccccc1CO -19.7%, CN1c2ccccc2-c2nc(SCC(=O)Nc3ccccc3)ncc2S1(=O)=O -27%, CCN(CC)c1ccc(-c2nc(-c3ccccn3)no2)cc1[N+](=O)[O-] 10.2%, Cc1ccc(C)c(NC(=O)CN(Cc2ccccc2)S(=O)(=O)c2ccc3nc(C)sc3c2)c1 -24.7%, CCN(CCCNC(=O)c1ccc(Sc2ccc(Cl)cc2)c(NC(C)=O)c1)c1cccc(C)c1 -19.8%, COC(=O)C1CCN(c2csc3ccc(C)cc3c2=O)CC1 -17.3%, CCc1nn(CCCC(=O)NCc2ccc(OC)c(OC)c2)c(=O)c2cc3occc3n12 -11.5%, Cc1ccc(-n2ncc3c(NCc4ccccc4)ncnc32)cc1C 36.6%, Cc1cc(Br)ccc1NC(=O)c1sc2ncn(Cc3ccccc3Cl)c(=O)c2c1C -22.2%, COc1cc(C2Oc3nc(SC)nnc3-c3ccccc3N2C(C)=O)cc(Cl)c1OC (stereo not given) -12.6%, O=C(CSc1oc(-c2ccco2)nc1S(=O)(=O)c1ccc(Br)cc1)c1ccc(Cl)cc1 -19.8%, CCOC(=O)c1ccc(NC(=O)C(CC)Sc2nncn3c2cc2oc(C)cc23)cc1 (stereo not given) -31.4%, Cc1cn2c(=O)cc(COC(=O)c3ccc(NC(=O)c4ccc(C(C)(C)C)cc4)cc3)nc2s1 -14.6%, COc1ccc(CNS(=O)(=O)c2csc(C(N)=O)c2)cc1OC -36.6%, COc1ccc(C2=Nc3ccccc3N(CC(=O)Nc3cccc(C(C)=O)c3)C(=O)C2)cc1 -18.6%, CCCCNc1nc2c(-c3cccc(Br)c3)nnn2c2ccccc12 9.63%, CCC1=C(c2ccc(C)cc2)S(=O)(=O)N=C1N1CCC(C(=O)NCCc2cccc(OC)c2)CC1 -9.01%, COc1cccc2c1cc1c(=O)n(CC(=O)NCCCN3CCN(C)CC3)nc(C)n12 -2.78%, COc1ccc(OCCCn2c(C)nc3cc(C)c(C)cc32)cc1 43.3%, O=C1Nc2c(c(=O)[nH]c(=O)n2-c2ccc(F)cc2)C1(NS(=O)(=O)c1ccc(Cl)cc1)C(F)(F)F (stereo not given) 1.86%, Cn1nnnc1SCCCNCc1cc(Cl)ccc1OCc1ccccc1 7.73%, COC(=O)c1ccc(OCC2c3cc(OC)c(OC)cc3CCN2C(=O)Cc2ccc(OC)c(OC)c2)cc1 (stereo not given) -8.29%, CC(C)c1nn2c(=O)cc(COC(=O)c3ccc4c(c3)OCO4)nc2s1 8.48%, COc1cc(C(=O)Nc2nnc(CC(C)(C)C)s2)cc(OC)c1OC 10.6%, CCc1ccc(NC(=O)C2CCCN2S(=O)(=O)c2cccc3nsnc23)cc1 (stereo not given) -8.38%, CC(=O)N1CCc2c(sc3c2c(=O)n(-c2ccccc2)c(=O)n3CC(=O)c2ccc(F)cc2)C1 1.83%, Cc1cn2c(=O)c(S(=O)(=O)NCCc3ccc(Cl)cc3)c(C)nc2s1 -17.4%, CCOc1ccc(C(=O)Nc2ccc(Cl)c(-c3nc4cc(C)cc(C)c4o3)c2)cc1 -0.895%, COc1ccc(-c2nc3sc(CCNC(=O)c4ccc(C(C)(C)C)cc4)c(C)n3n2)cc1 -4.13%, CCOc1ccccc1C(=O)Nc1cc2c(cc1C)n(C)c(=O)c(=O)n2C -21.4%, CCc1ccc2occ(CC(=O)NCc3ccccc3)c2c1 -17.7%, CC(C)c1ccc(NC(=O)c2cc(S(=O)(=O)NCCC3=CCCCC3)ccc2F)cc1 -18.1%, COc1ccc(NC(=O)Cc2ccc(NC(=O)N3CCCCc4ccccc43)cc2)c(OC)c1 -0.59%, CCN(CC)CCNC(=O)Cn1cnc2sc(C)c(S(=O)(=O)N3CCC(C)CC3)c2c1=O -0.716%, COc1ccc(CNC(=O)CN(C)S(=O)(=O)c2ccc3[nH]c4c(c3c2)CCCC4)cc1 9.45%, Cn1cc(-c2cc3n(n2)CCC(=O)N3CCCC(=O)NCc2ccccc2)c2ccccc21 -0.0515%, CCOC(=O)C1CCC(CN(Cc2ccc(OC)cc2)S(=O)(=O)c2ccc(F)c(C(=O)Nc3cc(Cl)ccc3OC)c2)CC1 (stereo not given) 6.03%, Cc1cc(C)cc(OC(C)C(=O)Nc2nc3c(s2)CCCC3)c1 (stereo not given) -14.5%, N#C/C(=C\c1ccc(O)c(O)c1)C(=O)NCCc1ccccc1 -2.52%, COc1ccc(NC(=O)c2ccco2)cc1NC(=O)c1ccc(OC(C)C)cc1 -8.57%, COc1cccc(/C=C(\C#N)c2nc3ccccc3c(=O)[nH]2)c1OC -8.31%, CCCC(C(=O)Nc1cc(C)c(Cl)cc1OC)N1Cc2ccccc2C1=O (stereo not given) -27.8%, COc1cc(NC(=O)Cn2cc(S(=O)(=O)N3CCC(C)CC3)c3ccccc3c2=O)cc(OC)c1OC -6.69%, CCOC(=O)C1=C(CNCc2ccc(Cl)cc2)NC(=O)NC1c1ccccc1 (stereo not given) 19.5%, CC(=O)N1c2ccccc2CC1C(=O)N1CCN(c2ccccc2F)CC1 (stereo not given) -13.9%, CCOC(=O)c1ccc(NC(=O)C2CCCN(c3cnccn3)C2)cc1 (stereo not given) -3.83%, COc1ccc(Oc2ncnc3c2oc2ccccc23)cc1 -6.86%, COc1cn(CC(=O)Nc2cccc(C)c2)c(CN2CCCCC2)cc1=O -6.29%, COc1ccc(CCNC(=O)Cn2nc(-c3ccc(Cl)cc3)ccc2=O)cc1OC -7.43%, CCOc1ccc(Nc2ncnc3onc(-c4ccc(Cl)cc4)c23)cc1 17.3%, CC(=O)c1ccc(N2CCN(S(=O)(=O)c3ccc(-c4cnc(C5CC5)o4)cc3)CC2)cc1 -46.3%, Cc1ccc(OCC(=O)Nc2ccc(C(=O)OCc3cc(=O)n4ccsc4n3)cc2)cc1C 37.2%, Cc1nc2sccn2c(=O)c1S(=O)(=O)Nc1cccc(Cl)c1C -7.83%, CCn1cc(/C=C(\NC(=O)c2ccc(OC)c(OC)c2)C(=O)NCCCn2ccnc2)c2ccccc21 -1.95%, CCOC(=O)c1cc(-c2ccc(OC)cc2)n(CCC(=O)NCCc2ccc(OCC)c(OCC)c2)c1C -33.2%, Cc1ccc(NC(=O)N2CCC(CN3CCCCC3)CC2)c(Cl)c1 4.65%, O=c1[nH]c(=O)c2nc3ccccc3nc2[nH]1 7.04%, CC(C)(C)OC(=O)N1CCC(c2c(C(=O)N3CCN(c4ncccn4)CC3)cnn2-c2ccc(F)cc2)CC1 -6.44%, CCOC(=O)c1c(-c2ccc(OC)cc2)oc2ccc(OCc3ccc(F)cc3F)cc12 9.34%, Cc1ccccc1Nc1nnc(-c2ccc(C)c(S(=O)(=O)NCC3CCCO3)c2)c2ccccc12 (stereo not given) -49.1%
